Hit rate of the full screen: of about 4,800 compounds, about 410 (8.5%) showed an effect of 50% or more. This is one part of the list.
system: Plasmodium falciparum; experiment: Confirmatory screen in NF54 pLDH assay, in single point, at 2uM, 72h; type: functional, Erythrocyte; conditions: timepoint 72 hour

Structure (SMILES)	% Inhibition
Fc1ccc(N2CC[C@H](CN3CCC(c4c[nH]c5ccccc45)(c4c[nH]c5ccccc45)CC3)C2)cc1	102%
O[C@@H](CNCc1ccc2c(c1)CCO2)c1ccc(F)c(F)c1	74%
CCN(C(C)=O)c1nc(CN2CC=C(c3c[nH]c4cc(F)ccc34)CC2)cs1	20%
Cc1ccc(CNc2ncnc(N)c2Cl)c(N2CCCC2)n1	8%
CN1CCC(N(C)c2ccccc2CNC[C@@H](O)c2cccc(Cl)c2)CC1	17%
CC(C)(C)c1ccc(CNC[C@H](O)c2ccc(F)cc2F)cc1	91%
COc1ccc(CCNCc2ccc3[nH]cnc3c2)c(Cl)c1	48%
Oc1ccc(C2=CCN(Cc3cccc4[nH]ccc34)CC2)cc1	38%
CCCOc1cncc(-c2ccc3c(c2)CNCC3)c1	8%
CN1C2CCC1CC(OC(=O)C1CCC(C(=O)OC3CC4CCC(C3)N4C)(c3ccccc3)c3ccccc31)C2 (configuration not stated)	63%
CN(C)CC12CNCC1CN(c1ccnc3cc(Cl)ccc13)C2 (configuration not stated)	97%
CN1CCN(c2ccc(C(F)(F)F)cc2NCc2cnc[nH]2)CC1	92%
